The other results are listed elsewhere or left out. The list includes weakly bound sequences.
What follows are sequences tested against T1, MBP-FoxP3dN (UniProt Q99JB6) (assay: PD-seq (MBP pull-down with sequencing)). Conditions: 20 mM Tris-HCl pH 7.5, 100 mM NaCl, 1.5 mM MgCl2, 0.4 uM protein, 0.1 uM dsDNA library, 30 min, room temperature, amylose pull-down; high values mean tight binding; double strand, one strand shown.
T1 sequence: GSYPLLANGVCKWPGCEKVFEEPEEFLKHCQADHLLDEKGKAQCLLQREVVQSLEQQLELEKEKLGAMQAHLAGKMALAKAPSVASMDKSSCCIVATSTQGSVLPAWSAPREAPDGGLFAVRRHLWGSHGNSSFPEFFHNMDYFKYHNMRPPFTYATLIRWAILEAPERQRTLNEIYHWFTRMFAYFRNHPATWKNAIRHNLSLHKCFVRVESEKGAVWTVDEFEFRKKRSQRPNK

Sequence | binding signal (RPM ratio (pull-down/input))
GATGATTGTTCTCCCAGCTGATGAATTCTCCTATTCGAGTAAACAAATTTTCCTAATCTTTCTGTTCAAGCGCCATCTAC | 0.285
GATGATTGTTCTCCCAGCTGATGAATTCTAGCTATCGAGTAAACAAATTTTCCTAATCTTTCTGTTCAAGCGCCATCTAC | 0.717
GATGATTGTTCTCCCAGCTGATGAATTTGTAAATTCGAGTAAACAAATTTTCCTAATCTTTCTGTTCAAGCGCCATCTAC | 1.23
GATGATTGTTCTCCCAGCTGATGAATTCTTGTCGTCGAGTAAACAAATTTTCCTAATCTTTCTGTTCAAGCGCCATCTAC | 0.447
GATGATTGTTCTCCCAGCTGATGAATTGGCAAGGTCGAGTAAACAAATTTTCCTAATCTTTCTGTTCAAGCGCCATCTAC | 0.314
GATGATTGTTCTCCCAGCTGATGAATTTCGGAGCTCGAGTAAACAAATTTTCCTAATCTTTCTGTTCAAGCGCCATCTAC | 0.247
GATGATTGTTCTCCCAGCTGATGAATTATCCTGCTCGAGTAAACAAATTTTCCTAATCTTTCTGTTCAAGCGCCATCTAC | 0.234
GATGATTGTTCTCCCAGCTGATGAATTGGCTGGCTCGAGTAAACAAATTTTCCTAATCTTTCTGTTCAAGCGCCATCTAC | 0.35
GATGATTGTTCTCCCAGCTGATGAATTGTTTTCTTCGAGTAAACAAATTTTCCTAATCTTTCTGTTCAAGCGCCATCTAC | 4.15
GATGATTGTTCTCCCAGCTGATGAATTCGCGATTTCGAGTAAACAAATTTTCCTAATCTTTCTGTTCAAGCGCCATCTAC | 0.635
GATGATTGTTCTCCCAGCTGATGAATTCGACCACTCGAGTAAACAAATTTTCCTAATCTTTCTGTTCAAGCGCCATCTAC | 0.416
GATGATTGTTCTCCCAGCTGATGAATTGATTACCTCGAGTAAACAAATTTTCCTAATCTTTCTGTTCAAGCGCCATCTAC | 1.21
GATGATTGTTCTCCCAGCTGATGAATTACACGTTTCGAGTAAACAAATTTTCCTAATCTTTCTGTTCAAGCGCCATCTAC | 0.631
GATGATTGTTCTCCCAGCTGATGAATTTCGAGATTCGAGTAAACAAATTTTCCTAATCTTTCTGTTCAAGCGCCATCTAC | 0.361
GATGATTGTTCTCCCAGCTGATGAATTAGCTGGATCGAGTAAACAAATTTTCCTAATCTTTCTGTTCAAGCGCCATCTAC | 0.259
GATGATTGTTCTCCCAGCTGATGAATTTGTGCGGTCGAGTAAACAAATTTTCCTAATCTTTCTGTTCAAGCGCCATCTAC | 1.8

Sequence | binding signal (RPM ratio (pull-down/input))
GATGATTGTTCTCCCAGCTGATGAATTAGCTGCCTCGAGTAAACAAATTTTCCTAATCTTTCTGTTCAAGCGCCATCTAC | 0.845
GATGATTGTTCTCCCAGCTGATGAATTAATTGCCTCGAGTAAACAAATTTTCCTAATCTTTCTGTTCAAGCGCCATCTAC | 1.83
GATGATTGTTCTCCCAGCTGATGAATTACTAGCATCGAGTAAACAAATTTTCCTAATCTTTCTGTTCAAGCGCCATCTAC | 1.06
GATGATTGTTCTCCCAGCTGATGAATTTCATCTTTCGAGTAAACAAATTTTCCTAATCTTTCTGTTCAAGCGCCATCTAC | 0.497
GATGATTGTTCTCCCAGCTGATGAATTCCCGGAGTCGAGTAAACAAATTTTCCTAATCTTTCTGTTCAAGCGCCATCTAC | 0.177
GATGATTGTTCTCCCAGCTGATGAATTGATTTACTCGAGTAAACAAATTTTCCTAATCTTTCTGTTCAAGCGCCATCTAC | 3.56
GATGATTGTTCTCCCAGCTGATGAATTACCACCCTCGAGTAAACAAATTTTCCTAATCTTTCTGTTCAAGCGCCATCTAC | 0.312
GATGATTGTTCTCCCAGCTGATGAATTCAGTAGCTCGAGTAAACAAATTTTCCTAATCTTTCTGTTCAAGCGCCATCTAC | 0.763
GATGATTGTTCTCCCAGCTGATGAATTAAGGATATCGAGTAAACAAATTTTCCTAATCTTTCTGTTCAAGCGCCATCTAC | 0.372
GATGATTGTTCTCCCAGCTGATGAATTGGCGGCATCGAGTAAACAAATTTTCCTAATCTTTCTGTTCAAGCGCCATCTAC | 0.882
GATGATTGTTCTCCCAGCTGATGAATTAGCTCGTTCGAGTAAACAAATTTTCCTAATCTTTCTGTTCAAGCGCCATCTAC | 0.372
GATGATTGTTCTCCCAGCTGATGAATTTATATGCTCGAGTAAACAAATTTTCCTAATCTTTCTGTTCAAGCGCCATCTAC | 2.57
GATGATTGTTCTCCCAGCTGATGAATTTAGTTCATCGAGTAAACAAATTTTCCTAATCTTTCTGTTCAAGCGCCATCTAC | 0.875
GATGATTGTTCTCCCAGCTGATGAATTTAAATACTCGAGTAAACAAATTTTCCTAATCTTTCTGTTCAAGCGCCATCTAC | 0.641
GATGATTGTTCTCCCAGCTGATGAATTCACAGATTCGAGTAAACAAATTTTCCTAATCTTTCTGTTCAAGCGCCATCTAC | 0.245
GATGATTGTTCTCCCAGCTGATGAATTGGGCAAATCGAGTAAACAAATTTTCCTAATCTTTCTGTTCAAGCGCCATCTAC | 0.522
